Data as given in publication PMC4336329 (PLoS ONE, 2015).
Out of some 310,000 compounds screened, about 2,200 (0.71%) showed an effect of 50% or more. Effects have a minus sign here. Some of the results follow.

molecular target: human ether-à-go-go-related gene (hERG) potassium channel (human, UniProt Q12809); assay: primary screen, population patch clamp on CHO cells stably expressing hERG
Sequence (Q12809 whole entry, looked up): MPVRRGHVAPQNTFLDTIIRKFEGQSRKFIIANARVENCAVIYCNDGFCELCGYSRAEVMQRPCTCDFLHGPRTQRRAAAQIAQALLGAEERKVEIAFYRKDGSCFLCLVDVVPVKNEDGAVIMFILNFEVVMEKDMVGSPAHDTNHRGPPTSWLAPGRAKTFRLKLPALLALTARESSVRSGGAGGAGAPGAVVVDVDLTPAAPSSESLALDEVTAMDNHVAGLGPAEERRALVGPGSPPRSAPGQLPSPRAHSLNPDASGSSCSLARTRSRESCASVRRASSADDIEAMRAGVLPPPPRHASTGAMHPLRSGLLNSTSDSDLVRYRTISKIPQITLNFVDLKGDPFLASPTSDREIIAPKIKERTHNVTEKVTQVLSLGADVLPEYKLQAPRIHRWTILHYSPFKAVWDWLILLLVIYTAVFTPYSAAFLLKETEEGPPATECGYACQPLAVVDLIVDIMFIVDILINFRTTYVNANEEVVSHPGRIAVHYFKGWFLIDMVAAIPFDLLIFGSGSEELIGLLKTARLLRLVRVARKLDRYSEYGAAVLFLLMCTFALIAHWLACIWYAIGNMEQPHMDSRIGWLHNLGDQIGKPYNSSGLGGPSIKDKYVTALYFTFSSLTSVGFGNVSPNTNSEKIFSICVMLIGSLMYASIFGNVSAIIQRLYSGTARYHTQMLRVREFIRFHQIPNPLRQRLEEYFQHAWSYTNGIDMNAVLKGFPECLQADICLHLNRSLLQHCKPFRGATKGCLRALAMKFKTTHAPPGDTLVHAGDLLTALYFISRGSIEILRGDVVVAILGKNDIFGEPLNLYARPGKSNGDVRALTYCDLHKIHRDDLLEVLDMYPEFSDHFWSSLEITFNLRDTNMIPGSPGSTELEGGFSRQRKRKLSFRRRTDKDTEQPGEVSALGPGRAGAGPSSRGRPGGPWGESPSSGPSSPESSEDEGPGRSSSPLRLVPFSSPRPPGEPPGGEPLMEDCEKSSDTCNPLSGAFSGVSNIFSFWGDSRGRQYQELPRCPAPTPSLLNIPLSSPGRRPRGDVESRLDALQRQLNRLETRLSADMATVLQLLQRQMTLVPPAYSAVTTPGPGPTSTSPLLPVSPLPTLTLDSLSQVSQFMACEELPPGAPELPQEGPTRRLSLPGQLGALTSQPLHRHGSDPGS

Cc1ccc(CS(=O)(=O)c2ncc(Cl)c(C(=O)Nc3nnc(C(C)C)s3)n2)cc1 was tested. Which “hERG current change (%, negative = inhibition) at 1uM” value did it give?
Its value is 21.8%.

COc1ccc(S(=O)(=O)N(C)C)cc1NC(=O)CCNC(=O)c1ccccc1OC was tested. Which “hERG current change (%, negative = inhibition) at 1uM” value did it give?
Its value is 16.4%.

CCC(C)NC(=O)Cc1cn(C)c2ccccc12 (stereo not shown) was tested. Which “hERG current change (%, negative = inhibition) at 1uM” value did it give?
The value was -2.35%.

With C[C@H](NC(=O)c1nc[nH]c1C(=O)N[C@H](C)c1ccccc1)C(=O)OCc1ccccc1 as the compound, how does the “hERG current change (%, negative = inhibition) at 1uM” value read?
The value was 10.7%.

How did the “hERG current change (%, negative = inhibition) at 1uM” value turn out when O=C(CCNC(=O)c1ccc([N+](=O)[O-])cc1)Nc1ccc(N2CCOCC2)cc1N1CCOCC1 was run?
Its value is 7.69%.

How did the “hERG current change (%, negative = inhibition) at 1uM” value turn out when O=C(O)C(=O)O.OC(COCc1ccc(Cl)cc1)CN1CC=C(c2ccccc2)CC1 (stereo not shown) was run?
Its value is -84.2%.

How did the “hERG current change (%, negative = inhibition) at 1uM” value turn out when Cc1[nH]n(-c2ccc(Cl)cc2)c(=O)c1C(=O)c1ccccc1 was run?
The value was 12.5%.

Which “hERG current change (%, negative = inhibition) at 1uM” value does the source give for O=c1c2ccccc2[nH]c(=S)n1CC1CCCO1 (stereo not shown) here?
The value was 10.7%.

How did the “hERG current change (%, negative = inhibition) at 1uM” value turn out when COc1ccc(C(=O)NCC(=O)OCC(=O)N(C)c2ccccc2)cc1 was run?
The value was 13%.

How did the “hERG current change (%, negative = inhibition) at 1uM” value turn out when Cc1cc(C(=O)NNC(=O)CCCCC(=O)NNC(=O)c2cc(C)[nH]n2)n[nH]1 was run?
The value was -4.08%.

Which “hERG current change (%, negative = inhibition) at 1uM” value does the source give for CCC(Cc1ccccc1)NC(=O)CN(C)S(=O)(=O)c1ccc2c(c1)c(=O)n(C)c(=O)n2C (stereo not shown) here?
The value was -5.51%.

How did the “hERG current change (%, negative = inhibition) at 1uM” value turn out when CC[C@@H](C)[C@@H](C(=O)N1CCN(C(=O)OC(C)(C)C)CC1)n1cc(CCC(=O)O)nn1 was run?
The value was 15.4%.

Cc1ccc(NC(=O)COC(=O)CN2C(=O)C3CCCCC3C2=O)cc1C (stereo not shown) was tested. Which “hERG current change (%, negative = inhibition) at 1uM” value did it give?
The value was 8.33%.

For Cc1cc(C)n(-c2ccc(C(=O)Nc3cccnc3)cc2)n1, which “hERG current change (%, negative = inhibition) at 1uM” value is on record?
The value was 11.3%.

For O=C(NCc1ccc(F)cc1)C1CC(=O)N(C2CCCCCCC2)C1 (stereo not shown), which “hERG current change (%, negative = inhibition) at 1uM” value is on record?
The value was 18.6%.

Which “hERG current change (%, negative = inhibition) at 1uM” value does the source give for COc1ccccc1NC(=O)c1ccc(NC(=O)CSc2nncn2C)cc1 here?
Its value is 5.75%.

Which “hERG current change (%, negative = inhibition) at 1uM” value does the source give for Cc1nnc(NC(=O)C2c3ccccc3Oc3ccccc32)s1 here?
Its value is 8.55%.

O=C(COC(=O)c1ccncc1)NC(=O)C1CCCCC1 was tested. Which “hERG current change (%, negative = inhibition) at 1uM” value did it give?
Its value is 0.192%.

For Fc1ccc2nc(-c3ccccc3)nc(SCc3nnc(-c4ccccc4)o3)c2c1, which “hERG current change (%, negative = inhibition) at 1uM” value is on record?
Its value is -1.73%.

Which “hERG current change (%, negative = inhibition) at 1uM” value does the source give for CCOC(=O)N1CCN(C(=O)CN(Cc2ccccc2)S(=O)(=O)c2ccc(OC)c(Cl)c2)CC1 here?
The value was 7.29%.

For COC(=O)C1(C)NC(c2ccc(F)cc2)C2C(=O)N(c3ccccc3)C(=O)C21 (stereo not shown), which “hERG current change (%, negative = inhibition) at 1uM” value is on record?
The value was 11.3%.

CCOc1ccc(NC(=O)CCN2CCN(c3ccccc3OC)CC2)cc1 was tested. Which “hERG current change (%, negative = inhibition) at 1uM” value did it give?
Its value is 0.808%.

With CCOC(=O)C(C)Oc1cccc2c(=O)n(CC(=O)NCc3ccc4c(c3)OCO4)ccc12 (stereo not shown) as the compound, how does the “hERG current change (%, negative = inhibition) at 1uM” value read?
The value was 18.5%.

For O=C(Cn1cccc1C(=O)c1ccccc1)NCCC1=CCCCC1, which “hERG current change (%, negative = inhibition) at 1uM” value is on record?
Its value is -7.9%.

Which “hERG current change (%, negative = inhibition) at 1uM” value does the source give for Cc1cc(C)c[n+](CC(=O)c2ccccc2)c1.[Br-] here?
The value was 20.1%.

Which “hERG current change (%, negative = inhibition) at 1uM” value does the source give for O=C(Nc1ccn(Cc2ccccc2)n1)c1n[nH]c([N+](=O)[O-])c1Cl here?
Its value is -8.9%.

For CCc1nnc(NC(=O)CS(=O)(=O)c2ccccc2)s1, which “hERG current change (%, negative = inhibition) at 1uM” value is on record?
Its value is 12.1%.

Which “hERG current change (%, negative = inhibition) at 1uM” value does the source give for CCOC(=O)c1c(NC(=O)CSc2nnc(-c3ccc(Cl)cc3)o2)sc2c1CCC2 here?
The value was 3.09%.

With COc1ccc(O)c(/C=N/Nc2nc(Nc3ccccc3)nc(-n3nc(C)cc3C)n2)c1 as the compound, how does the “hERG current change (%, negative = inhibition) at 1uM” value read?
The value was 7.08%.

Which “hERG current change (%, negative = inhibition) at 1uM” value does the source give for O=C1c2cccnc2C(=O)N1Cc1ccccc1 here?
Its value is 4.89%.

Which “hERG current change (%, negative = inhibition) at 1uM” value does the source give for CCNc1nc(NC(C)C)nc(NS(=O)(=O)c2ccc(C)cc2)n1 here?
Its value is 9.71%.

For CC1(C)CC(=O)c2cnn(-c3nc4ccccc4[nH]3)c2C1, which “hERG current change (%, negative = inhibition) at 1uM” value is on record?
Its value is 6.98%.

For CN(C)c1ccc(C(=O)N2CCN(c3cc(C(F)(F)F)nc4ccccc34)CC2)cc1, which “hERG current change (%, negative = inhibition) at 1uM” value is on record?
Its value is 4.98%.

O=C(c1ccc(F)cc1)C1CCN(Cc2cn[nH]c2-c2ccccc2)CC1 was tested. Which “hERG current change (%, negative = inhibition) at 1uM” value did it give?
Its value is -84.2%.

For O=C(C[n+]1ccc(Cc2ccccc2)cc1)Nc1ccc([N+](=O)[O-])cc1Cl.[Cl-], which “hERG current change (%, negative = inhibition) at 1uM” value is on record?
The value was 1.51%.

Which “hERG current change (%, negative = inhibition) at 1uM” value does the source give for COc1ccc(CC(=O)Oc2ccc(F)c(F)c2)cc1S(=O)(=O)N1CCOCC1 here?
The value was 1.01%.

How did the “hERG current change (%, negative = inhibition) at 1uM” value turn out when C=CC[n+]1c(C)csc1Nc1ccc(C)cc1.[Br-] was run?
The value was 11.5%.

For Cc1cc(-c2nnc(CCC(=O)NC(C)c3ccccc3Cl)o2)no1 (stereo not shown), which “hERG current change (%, negative = inhibition) at 1uM” value is on record?
The value was 5.53%.

With O=C(Cn1c(=O)oc2ccccc21)Nc1n[nH]c(=S)s1 as the compound, how does the “hERG current change (%, negative = inhibition) at 1uM” value read?
Its value is 13.7%.

How did the “hERG current change (%, negative = inhibition) at 1uM” value turn out when CS(=O)(=O)c1ccc(Cl)c(NC(=O)COC(=O)Cc2c[nH]c3ccccc23)c1 was run?
Its value is 5.09%.

For O=C(CCNC(=O)c1ccco1)Nc1ccc(Cl)cc1, which “hERG current change (%, negative = inhibition) at 1uM” value is on record?
Its value is 5.16%.

Which “hERG current change (%, negative = inhibition) at 1uM” value does the source give for O=C(Nc1ccc2nc(-c3ccccn3)c(-c3ccccn3)nc2c1)N1CCOCC1 here?
The value was 10.5%.

O=C(COC(=O)c1ccc(S(=O)(=O)N2CCCC2)cc1)Nc1ccc(Cl)cc1 was tested. Which “hERG current change (%, negative = inhibition) at 1uM” value did it give?
Its value is 2.58%.
